Molecules are shown by their SMILES. Among all 50,000 compounds or so, about 800 (1.6%) showed an effect of 50% or more. The list shows a part of the results.

The assay addresses Bcl-2-like protein 10 (Homo sapiens) (UniProt Q9HD36). The experiment in a line: Phenotype converters, Bcl-B/TR3 peptide binding displacement, primary biochemical FP (AID 1240).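 Further: 0% = Bcl-B with tracer peptide and DMSO and 100% = tracer peptide lacking Bcl-B.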 The conditions noted are these: GST-Bcl-B / FITC-TR3 peptide fluorescence polarization; stronger effect = higher value; compound at 3.75 mg/L. A general note: Fluorescence polarisation rises when a labelled molecule tumbles more slowly, as on binding a larger partner.
Sequence of UniProt Q9HD36 (Q9HD36 whole entry, looked up): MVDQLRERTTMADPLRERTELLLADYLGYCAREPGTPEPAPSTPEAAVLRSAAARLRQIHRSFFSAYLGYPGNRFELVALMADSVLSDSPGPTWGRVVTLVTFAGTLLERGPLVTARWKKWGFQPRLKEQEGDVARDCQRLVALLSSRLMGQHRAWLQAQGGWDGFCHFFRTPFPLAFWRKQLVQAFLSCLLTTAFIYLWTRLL
For `CSc1nc(-c2ccccc2F)c(C#N)c(=O)n1C`, the displacement is -3%.

Regarding `Cc1cc(Cl)ccc1OCC(=O)Nc1ccccc1C(N)=O`, the displacement is 1.8%.

Regarding `Cc1ccc2ncnc(Nc3ccccc3Cl)c2c1`, the displacement was 7.3%.

In the case of `COc1ccccc1N1CCN(C(=S)Nc2ccccc2)CC1`, the displacement is -3.4%.

Consider `O=C1S/C(=C/c2cc([N+](=O)[O-])ccc2O)C(=O)N1c1ccccc1`, for which the displacement was found to be 7%.

Regarding `N#C/C(=C\c1ccc(-c2cccc(Cl)c2)o1)c1ccc(Cl)cc1`, the displacement was -3.8%.

On to `Cc1ccc2nc(N/N=C/c3ccc4ncccc4c3)nc(-c3ccccc3)c2c1`, for which the displacement is -10.4%.

For the molecule `CN(C)c1ccc(C2Nc3ccc(C(=O)c4ccccc4)cc3NC3=C2C(=O)CCC3)cc1` (centres undefined), the displacement was -4.5%.

In the case of `O=C(Nc1nc(-c2cccs2)cs1)c1ccc(S(=O)(=O)N2CCCCC2)cc1`, the displacement was -20.1%.

In the case of `O=c1c2c3c(sc2[nH]c(=S)n1-c1ccccc1)CCCC3`, the displacement was -4%.

Turning to `C=CCN1C(=O)/C(=C/c2ccc(O)c(OC)c2)S/C1=N\S(=O)(=O)c1ccc([N+](=O)[O-])cc1`, the displacement stood at 0.9%.

Consider `CSc1ccc(Cl)c(C(=O)NCc2ccco2)c1`, for which the displacement was -51.8%.

As for `CCn1c(SCC(=O)c2ccc(Cl)cc2)nc2ccccc2c1=O`, the displacement was -5%.

For the molecule `COc1ccc(OCC(=O)NNC(=O)C2COc3ccccc3O2)cc1` (centres undefined), the displacement is 1.5%.

As to `N#CC(C#N)=Cc1ccc(-c2ccc3c(c2)COC3=O)o1`, the displacement is 109%.

On to `COC(=O)C1=C(C)NC2=C(C(=O)CC(c3ccc(OC)c(OC)c3)C2)C1c1ccc(OC)c(OC)c1` (centres undefined), for which the displacement was determined as 8.6%.

As to `COc1ccc(C(=O)Nc2c(C)ccc3nsnc23)cc1`, the displacement is 11.2%.

For `NNC(=O)c1cc(=O)[nH]c2ccccc12`, the displacement was -8%.

As for `COc1ccc(/C(O)=C2/C(=O)C(=O)N(CCCCCC(=O)O)C2c2ccc(OC)c(OC)c2)cc1` (centres undefined), the displacement stood at 2.7%.

In the case of `CCN(CC)c1nc2n(c(=O)n1)CCO2`, the displacement was -1.2%.

For the molecule `Cc1ccc(Cl)cc1NC(=O)C1CC(=O)N(c2ccc(Br)cc2)C1` (centres undefined), the displacement was -1.5%.

`NS(=O)(=O)c1ccc(NC(=O)C23CC4CC(CC(C4)C2)C3)cc1`: the displacement amounted to 1.4%.

In the case of `Cc1nn(-c2ccccc2)c(C)c1/C=N/NC(=O)c1cc(C23CC4CC(CC(C4)C2)C3)[nH]n1`, the displacement was -3.3%.

As to `C=CCN1C(=O)/C(=C/c2c(NC)nc3ccccn3c2=O)SC1=S`, the displacement worked out at 5.8%.

As to `COc1ccccc1NC(=O)CC1S/C(=N\N=C\c2ccc(C)o2)NC1=O` (centres undefined), the displacement was -8.7%.

For `O=C(O)C1C2CCC(C2)C1C(=O)Nc1nc(-c2ccc(Cl)cc2Cl)cs1` (centres undefined), the displacement is -8.5%.

For `CC1CCC(C(C)C)C(OC(=O)c2ccc([N+](=O)[O-])cc2)C1` (centres undefined), the displacement is 1.8%.

On to `Cc1ccc(N(CC(=O)Nc2ccc(Oc3ccccc3)cc2)S(C)(=O)=O)cc1`, for which the displacement was 3.6%.

With `CN1CCN(Cc2c(O)ccc3cc(-c4nc5ccccc5[nH]4)c(=O)oc23)CC1`, the displacement turned out to be 125%.

Values taken from PubChem BioAssay AID1240 (Sanford-Burnham Center for Chemical Genomics, 2008).
